Data on 54 molecules can be found in paper PMC4336329 (PLoS ONE, 2015).

Hit rate of the full screen: of about 310,000 compounds, about 14,000 (4.5%) showed an effect of 50% or more. Effects have a minus sign here. This is one part of the list.
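Further: peak tail current of the secondary pulse compared with the same well before compound.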

human ether-à-go-go-related gene (hERG) potassium channel, sequence (Q12809 whole entry, looked up): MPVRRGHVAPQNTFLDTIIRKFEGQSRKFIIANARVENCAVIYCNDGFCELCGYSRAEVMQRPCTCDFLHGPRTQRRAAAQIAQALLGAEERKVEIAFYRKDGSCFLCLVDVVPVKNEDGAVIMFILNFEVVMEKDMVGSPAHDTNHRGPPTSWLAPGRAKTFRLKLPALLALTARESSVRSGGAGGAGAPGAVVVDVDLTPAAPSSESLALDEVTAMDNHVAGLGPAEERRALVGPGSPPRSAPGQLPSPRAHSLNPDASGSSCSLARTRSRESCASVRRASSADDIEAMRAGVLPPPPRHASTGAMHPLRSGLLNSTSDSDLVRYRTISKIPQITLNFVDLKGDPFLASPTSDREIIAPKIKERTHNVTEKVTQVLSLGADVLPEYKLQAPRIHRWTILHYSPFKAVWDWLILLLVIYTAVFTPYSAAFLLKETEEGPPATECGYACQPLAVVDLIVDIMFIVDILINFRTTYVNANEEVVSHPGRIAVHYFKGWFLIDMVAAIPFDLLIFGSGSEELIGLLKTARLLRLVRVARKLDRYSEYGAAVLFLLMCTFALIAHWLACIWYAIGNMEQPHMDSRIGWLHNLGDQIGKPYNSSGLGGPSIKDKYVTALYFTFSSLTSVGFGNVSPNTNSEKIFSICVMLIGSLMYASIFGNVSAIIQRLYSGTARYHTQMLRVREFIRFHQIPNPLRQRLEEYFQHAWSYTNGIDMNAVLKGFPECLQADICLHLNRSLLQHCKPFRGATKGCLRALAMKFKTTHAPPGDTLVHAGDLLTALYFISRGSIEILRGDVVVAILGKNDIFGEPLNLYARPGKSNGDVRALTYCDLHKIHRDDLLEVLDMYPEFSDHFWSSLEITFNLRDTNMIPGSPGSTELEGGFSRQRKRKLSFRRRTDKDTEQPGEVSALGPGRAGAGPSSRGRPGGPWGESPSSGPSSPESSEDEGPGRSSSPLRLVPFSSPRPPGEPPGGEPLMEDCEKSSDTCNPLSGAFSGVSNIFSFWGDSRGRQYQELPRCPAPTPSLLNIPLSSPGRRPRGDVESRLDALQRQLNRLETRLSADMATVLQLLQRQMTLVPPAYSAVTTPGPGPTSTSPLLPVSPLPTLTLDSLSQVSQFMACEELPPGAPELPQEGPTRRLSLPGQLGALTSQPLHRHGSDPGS

The assay concerns the target human ether-à-go-go-related gene (hERG) potassium channel (human, UniProt Q12809). Description: primary screen, population patch clamp on CHO cells stably expressing hERG.
Turning to `COc1ccc2[nH]c3ccccc3c2c1`, the “hERG current change (%, negative = inhibition) at 10uM” value worked out at 2.66%.

For the molecule `O=C(CSc1nccc(=O)[nH]1)NCc1ccc(Cl)cc1`, the “hERG current change (%, negative = inhibition) at 10uM” value is -2.95%. The value for `COC(=O)c1c(C)n(-c2ccc(C)cc2)c2ccc(O)cc12` was -3.54%; that for `CC(=O)c1c(C)n(-c2ccc(Cl)cc2)c2ccc(O)cc12` was 12.5%; that for `CCn1c(=O)c2sccc2n2c(CCCC(=O)NC3CCN(Cc4ccccc4)CC3)nnc12` was -6.43%. With `COC(=O)C1=C(C(=O)OC)[C@@H]2N(Cc3ccccc3)c3ccccc3[C@@]23C[C@@H](C(=O)OC)N(C(=O)COCc2ccccc2)C3=N1`, the “hERG current change (%, negative = inhibition) at 10uM” value is listed as 4.76%. Next, `COc1ccc(NC(=O)CSc2nnc(-c3ccoc3C)n2CC2CCCO2)cc1` (stereo not drawn): -5.04%; `Cc1cccc(CN2CCCC(C(=O)c3ccc(C(F)(F)F)cc3)C2)n1` (stereo not drawn): -68.2%. Next, `Cc1nnc(Oc2ccc([N+](=O)[O-])cc2)c2ccccc12`: -25.2%; `CCC(=O)N(CCC(c1ccco1)c1ccccc1OC)Cc1cccs1` (stereo not drawn): -48.1%; `CC1Cc2ccccc2N1C(=O)COc1nc2ccccc2nc1N1CCOCC1` (stereo not drawn): 7.69%.

On to `O=S(=O)(c1ccc(F)cc1)N1CCCCC1c1cccnc1` (stereo not drawn), for which the “hERG current change (%, negative = inhibition) at 10uM” value is -0.138%.

For `CC(=O)NC(Cc1ccc(C)cc1)C(=O)NC1CCN(C(=O)c2cnccn2)CC1` (stereo not drawn), the “hERG current change (%, negative = inhibition) at 10uM” value stood at 8.09%.

On to `NC(=O)CC(NC(=O)OCc1ccccc1)C(=O)O` (stereo not drawn), for which the “hERG current change (%, negative = inhibition) at 10uM” value is listed as -22%.

Turning to `COc1cc(NC(=O)C(=O)N2CCN(C)CC2)c(OC)cc1Cl`, the “hERG current change (%, negative = inhibition) at 10uM” value was 16.4%. Turning to `Cc1ccsc1/C=N/NC(=O)CN1CCN(Cc2ccccc2)CC1`, the “hERG current change (%, negative = inhibition) at 10uM” value is recorded as -8.1%. The value for `CN(CC(=O)NC1CCCc2ccccc21)S(=O)(=O)c1ccc2c(c1)c(=O)n(C)c(=O)n2C` (stereo not drawn) was 4.5%; that for `CC(C)(C)c1cc(C(=O)O)n(Cc2ccc(Cl)cc2Cl)n1` was -0.322%; that for `O=C(NCCN1CCOCC1)c1ccc(CS(=O)(=O)c2ccc(Cl)cc2)o1` was -4.24%. Take `COc1ccc(CCN2C(=O)N[C@@H](C(C)C)C2=O)cc1`: the “hERG current change (%, negative = inhibition) at 10uM” value is 10.5%. As for `CCN(CC(=O)NCc1ccc(F)cc1)Cc1nc2ccccc2c(=O)[nH]1`, the “hERG current change (%, negative = inhibition) at 10uM” value is on record as -56.5%. Turning to `O=C(N/N=C/c1ccco1)c1cccc([N+](=O)[O-])c1`, the “hERG current change (%, negative = inhibition) at 10uM” value stood at 3.61%. As to `CC(C)C(NC(=O)CN(c1ccc2c(c1)OCCO2)S(=O)(=O)c1ccccc1)C(C)C`, the “hERG current change (%, negative = inhibition) at 10uM” value is recorded as -19.9%. The value for `CCOc1ccccc1NC(C)C(=O)NC(=O)NC1CCCCC1` (stereo not drawn) was -14%; that for `CC(C)OCC(O)CCc1n[nH]c(=S)n1-c1ccccc1` (stereo not drawn) was 19.6%. Turning to `CCc1nc2sc3c(=O)[nH]cnc3c2c2c1CSC(C)(C)C2`, the “hERG current change (%, negative = inhibition) at 10uM” value is recorded as -6.93%. Consider `Cc1cc(C)nc(NC(=O)c2c(-c3ccccc3Cl)noc2C)n1`, for which the “hERG current change (%, negative = inhibition) at 10uM” value was found to be 7.94%.

For the molecule `Clc1ccc(-c2nnc(-c3ccccc3)c(N3CCSCC3)n2)cc1`, the “hERG current change (%, negative = inhibition) at 10uM” value came out at 0.226%. In the case of `COc1cccc(NC(=O)CN2C(=O)C(c3ccc(C)cc3)=NC23CCCCCC3)c1`, the “hERG current change (%, negative = inhibition) at 10uM” value was determined as 4.97%. For `Cc1c(C(=O)N2CCCCC2)c(S(=O)(=O)NCCc2ccc(S(N)(=O)=O)cc2)c(C)n1C`, the “hERG current change (%, negative = inhibition) at 10uM” value is -4.09%. `Cc1cc(/C=N/Nc2nc(N)ncc2[N+](=O)[O-])c(C)n1-c1cccc(C(F)(F)F)c1`: the “hERG current change (%, negative = inhibition) at 10uM” value is reported as 27.2%. `COc1ccccc1NC(=O)CN(c1ccc(C23CC4CC(CC(C4)C2)C3)cc1)S(C)(=O)=O`: the “hERG current change (%, negative = inhibition) at 10uM” value is 6.65%.

As to `CCS(=O)(=O)N1CCN(c2cc3c(cc2[N+](=O)[O-])n(C)c(=O)n3C)CC1`, the “hERG current change (%, negative = inhibition) at 10uM” value was 7.13%. Next, `CCN1CCN(C(=O)c2ccc(CS(=O)Cc3ccc(C)cc3)o2)CC1` (stereo not drawn): 11%; `COc1ccc(-c2nnc(SCC(=O)/C(C#N)=C(\C)N)o2)cc1`: -5.99%; `COc1ccc(-c2ccc(CNCCCN3CCOCC3)o2)cc1Cl.Cl`: 6.83%.

On to `COc1ccc(CC2(CO)CCN(Cc3cnn(-c4ccccc4)c3)CC2)cc1`, for which the “hERG current change (%, negative = inhibition) at 10uM” value is on record as -77.6%. Next, `CC1(C)Cc2cccc(OCC(=O)Nc3cccnc3Cl)c2O1`: -6.78%; `CCc1cc2c3c(c1)C1(C(=O)N3C(C)(C)CC2C)C(C#N)=C(N)N2C(=C1C#N)Nc1ccccc12` (stereo not drawn): -1.49%; `COc1ccccc1NC(=O)c1ccc(NS(=O)(=O)c2c(C)noc2C)cc1`: -0.229%. As for `Cc1ccc(/C=N/Nc2ccc3c(C(F)(F)F)cc(C(F)(F)F)nc3n2)cc1`, the “hERG current change (%, negative = inhibition) at 10uM” value is listed as 10.8%. Next, `Cc1ccc(-n2c(=O)c(C#N)cc3c(=O)n4ccccc4nc32)cc1`: 2.97%; `COc1ccccc1-c1cc2nc(C)c(CCC(=O)NCc3ccco3)c(C)n2n1`: -43.1%; `Cc1cc(=O)[nH]c(Nc2c(C)n(C)n(-c3ccccc3)c2=O)n1`: 2.57%. As for `C=CCN(c1ccc(C(=O)Nc2cccc([N+](=O)[O-])c2)cc1)S(C)(=O)=O`, the “hERG current change (%, negative = inhibition) at 10uM” value was determined as 9.42%. Consider `Cc1nn(CC(=O)NCc2ccccc2)c(=O)c2ccccc12`, for which the “hERG current change (%, negative = inhibition) at 10uM” value was -13.2%.

For the molecule `COc1ccc(-c2nc3c(c(SCC(=O)N4CCCC4)n2)COC(C)(C)C3)cc1`, the “hERG current change (%, negative = inhibition) at 10uM” value is reported as -16.9%. Next, `CN(C(=O)CC1C(=O)NCCN1Cc1cccc(F)c1F)C1CC(C)(C)NC(C)(C)C1` (stereo not drawn): 26.1%; `O=C(Nc1ccccc1)Nc1ccc(Cl)nc1Cl`: 11.6%; `O=C(CSc1nc(C(F)(F)F)cc(=O)[nH]1)N1CCCC1`: 19%. Next, `CC(C)OCCCNC(=O)c1cc2c(=O)n(C)c3ccccc3c2n1C`: -1.46%; `NS(=O)(=O)c1ccc2nc(NC(=O)c3ccc4c(c3)OCCO4)sc2c1`: 22%. Next, `COC(=O)C1=C(C)NC(=O)/C1=C/c1ccc(CNS(=O)(=O)c2ccc(C)cc2)o1`: 15%; `CN(C)CCNc1nc2c(c(=O)[nH]c(=O)n2C)n1CCCc1ccccc1`: -29.1%.
